# ± gives the standard deviation of the averaged measurements. The full ranking holds about 33,000 sequences; the median of “E-score (dimensionless, -0.5 to 0.5)” is about -0.049, and the highest 2% start at about 0.37. The list shows a part of the results.
# Tested on: T1, PmTbr T-box DNA-binding domain (GST fusion)
# T1 sequence: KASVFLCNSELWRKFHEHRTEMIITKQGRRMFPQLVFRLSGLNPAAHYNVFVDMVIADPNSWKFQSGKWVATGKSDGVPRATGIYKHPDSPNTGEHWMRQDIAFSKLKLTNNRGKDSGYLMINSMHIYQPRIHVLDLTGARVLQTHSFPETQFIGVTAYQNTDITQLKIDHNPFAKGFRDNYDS
# Assay: PBM E-score of 8-mer (E-score (dimensionless, -0.5 to 0.5)); Tbr is Tbrain of the sea star Patiria miniata (Pm) or the sea urchin Strongylocentrotus purpuratus (Sp); higher = stronger binding preference; most listed sequences are background and not binding sites
# Settings: the construct has about 5 more residues each side
# In short: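 GST-fused Tbr T-box DNA-binding domains (the whole T-box plus about five flanking residues) were expressed in BL21 E. coli at 20 °C and purified by glutathione affinity chromatography. Universal Agilent oligonucleotide arrays were made double-stranded by primer extension, incubated with 200 nM protein in PBS (pH 7.5), then scanned and quantified. Every ungapped 8-mer was scored from probe intensities. The Universal PBM Analysis Suite gave each word an enrichment E-score, averaged over duplicate arrays.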
row,Sequence,PBM E-score of 8-mer
1,ACTGATGC,0.00524 ± 0.022
2,AGTGTCTG,0.218 ± 0.017
3,ACCCGGTC,-0.189 ± 0.0072
4,ACTTATTC,0.123 ± 0.032
5,AAGCTTCG,-0.0415 ± 0.026
6,CGTGCGAC,0.277 ± 0.018
7,TAGGACCA,-0.249 ± 0.011
8,CATCCAAA,-0.163 ± 0.034
9,AGTGGCAG,0.166 ± 0.021
10,ATTATATG,-0.141 ± 0.042
11,GGTTCTCA,0.0872 ± 0.085
12,CACTTCGG,0.363 ± 0.015
13,CTCAATGA,-0.0821 ± 0.0073
14,CCCCGTAG,-0.122 ± 0.047
15,TAACATTA,-0.108 ± 0.022
16,AGCAAAGC,-0.101 ± 0.1
17,CCTCACGA,-0.0676 ± 0.027
18,TGCGAAAA,0.391 ± 0.03
19,GTCCGGGA,-0.176 ± 0.0028
20,ATAATTCC,-0.198 ± 0.036
21,ATCTCACA,0.372 ± 0.021
22,CCAATATC,-0.046 ± 0.043
23,ACCTACCC,0.274 ± 0.0016
24,AAGAGAGG,-0.172 ± 0.0039
25,GAAAAGTC,0.075 ± 0.077

row,Sequence,PBM E-score of 8-mer
1,AGAATGCT,-0.103 ± 0.027
2,AAATGTTG,-0.0162 ± 0.038
3,TACATGGA,-0.0618 ± 0.0043
4,CCAGCCAC,0.0685 ± 0.028
5,ATTATTGA,-0.132 ± 0.072
6,GAGCCTAC,-0.223 ± 0.082
7,ATGAAACG,-0.217 ± 0.089
8,CCCCGTAA,0.0991 ± 0.072
9,CAAGCGCC,-0.172 ± 0.049
10,CACAGGAC,0.0835 ± 0.033
11,AGGGTTGC,-0.0644 ± 0.0023
12,AGTAGTTC,0.0935 ± 0.042
13,GTCGGGCA,0.17 ± 0.061
14,ACCTAGAG,0.0254 ± 0.044
15,ACTTTAGG,-0.0957 ± 0.054
16,AAATCGAT,-0.128 ± 0.094
17,CTTTGCAA,0.0814 ± 0.088
18,CCTCTCAG,-0.14 ± 0.047
19,GACTCCGC,-0.0515 ± 0.023
20,GGCGCTAA,0.426 ± 0.0098
21,AGACGTTG,-0.0868 ± 0.016
22,ACCGGAAC,-0.187 ± 0.053
23,ACCCGTTG,0.066 ± 0.13
24,GAATATAA,-0.0943 ± 0.03
25,CTCGGGTC,-0.132 ± 0.064

row,Sequence,PBM E-score of 8-mer
1,AGGAGGCC,-0.297 ± 0.034
2,CGGTAATA,-0.308 ± 0.005
3,GATACTAC,-0.0683 ± 0.012
4,ATAGCTTC,-0.283 ± 0.0087
5,AGTAACCC,-0.134 ± 0.005
6,TTACGAAA,-0.0961 ± 0.0063
7,AACTATTG,-0.075 ± 0.054
8,AAGCCATT,-0.111 ± 0.099
9,CCCAAAGC,-0.168 ± 0.015
10,AGTGACAA,0.4196 ± 0.0018
11,CCTCTCCG,-0.084 ± 0.01
12,ACGACTCG,0.264 ± 0.016
13,TCACGACA,0.276 ± 0.012
14,AGTAGGCA,-0.17 ± 0.099
15,AGATGAGG,-0.231 ± 0.012
16,AGGAGTGC,0.109 ± 0.024
17,GAAACCTC,-0.152 ± 0.14
18,ACAGAAAC,0.0765 ± 0.034
19,CAGGTAAC,0.128 ± 0.019
20,CGTATCTA,-0.21 ± 0.063
21,CCCTCAAC,-0.1 ± 0.025
22,CGATATCG,0.171 ± 0.041
23,CCATGTAG,-0.0878 ± 0.015
24,ATCTGACA,0.198 ± 0.039
25,AGCTCTCG,-0.116 ± 0.011

row,Sequence,PBM E-score of 8-mer
1,AATGCCCT,-0.191 ± 0.076
2,AAGAAAGA,-0.288 ± 0.041
3,ACGGTCGG,-0.168 ± 0.012
4,TGATCGCA,0.243 ± 0.019
5,CTAGAAAC,-0.0503 ± 0.068
6,GGTGCCGA,0.363 ± 0.016
7,CCACATTC,0.104 ± 0.038
8,GCAGATCC,-0.133 ± 0.056
9,AGGGGGCC,-0.33 ± 0.018
10,CATTAGCA,0.321 ± 0.0074
11,AGGTGACT,0.31 ± 0.015
12,CTTTCCGC,-0.0084 ± 0.099
13,TGACCTAA,-0.228 ± 0.013
14,GATAGACA,-0.0806 ± 0.04
15,CCAGTCGG,-0.144 ± 0.038
16,ATCCTGTG,0.00097 ± 0.019
17,AAGTATGG,-0.227 ± 0.062
18,ATTAGTAC,0.0246 ± 0.099
19,ATGGGCGG,-0.0557 ± 0.086
20,AATAATTA,-0.059 ± 0.03
21,CTAAGATC,-0.116 ± 0.078
22,GGTAGGTA,-0.131 ± 0.00086
23,GCGTCCGA,-0.0224 ± 0.048
24,CCCAATAG,0.0672 ± 0.083
25,AGCGTTTC,-0.135 ± 0.027

row,Sequence,PBM E-score of 8-mer
1,AGCCTTTG,-0.195 ± 0.034
2,AACGGAAT,0.0581 ± 0.071
3,ACAGCCGA,-0.0462 ± 0.028
4,CGAGCACA,-0.145 ± 0.02
5,GAATGTAA,-0.166 ± 0.1
6,CGCGCTAA,0.369 ± 0.0084
7,GCCCGGCC,-0.151 ± 0.028
8,ATTCCAAC,-0.167 ± 0.024
9,AGATTAGG,-0.149 ± 0.045
10,CGTGCGTA,-0.00978 ± 0.00028
11,GCCAACCA,0.123 ± 0.016
12,AGCCGGAA,-0.196 ± 0.015
13,AAACATTC,-0.0525 ± 0.037
14,GGCGGATA,-0.365 ± 0.03
15,AAGGTTAA,-0.185 ± 0.091
16,CGACGACC,0.0145 ± 0.08
17,CGCCTTCC,-0.0214 ± 0.05
18,ACGTAGCA,0.0988 ± 0.0023
19,GACAACTC,0.237 ± 0.024
20,CCATGGTC,-0.0411 ± 0.036
21,ACCCCCTC,-0.00817 ± 0.062
22,ATGCAGAG,-0.123 ± 0.047
23,ATGGCGAA,0.0912 ± 0.034
24,GGCTGAGA,0.052 ± 0.022
25,CGTCCTCA,-0.129 ± 0.043

row,Sequence,PBM E-score of 8-mer
1,AAAAACAA,-0.0813 ± 0.11
2,GTACCGAA,-0.191 ± 0.013
3,ACCGTACC,-0.141 ± 0.059
4,CGCACCAA,0.251 ± 0.04
5,ACGAATTC,-0.0796 ± 0.024
6,GGGATCGA,-0.211 ± 0.079
7,CAGCCCCC,-0.176 ± 0.015
8,CTGGGAGA,-0.0542 ± 0.0058
9,AGCTGGGG,-0.131 ± 0.035
10,CCCCCGGC,-0.16 ± 0.0058
11,GATCCCGA,-0.207 ± 0.0067
12,ATATGGAG,-0.218 ± 0.035
13,GTAAGGCA,-0.306 ± 0.082
14,AGGTCCCG,-0.213 ± 0.0028
15,GTCCATCA,-0.167 ± 0.012
16,CACGGCTG,0.0955 ± 0.088
17,AGTCAATG,-0.195 ± 0.041
18,GATCGGGA,-0.223 ± 0.042
19,CTAAATAG,-0.0726 ± 0.01
20,CCTGTGTC,0.0544 ± 0.035
21,AGGGGAAG,-0.115 ± 0.073
22,CGTAGTAC,-0.245 ± 0.039
23,GCCTCCGA,-0.07549 ± 0.00067
24,ATCAGCGC,0.158 ± 0.022
25,AGACACTG,-0.0402 ± 0.079

row,Sequence,PBM E-score of 8-mer
1,CCGCTCAA,-0.213 ± 0.012
2,CTGCATCA,-0.1 ± 0.077
3,CCTACTTC,-0.254 ± 0.038
4,AAAGGGGT,0.0881 ± 0.091
5,ATATACAC,0.0813 ± 0.032
6,AACAACGG,-0.0812 ± 0.055
7,CCGGTCAA,-0.079 ± 0.068
8,CGGCACCC,0.221 ± 0.043
9,CATCGCGA,0.15 ± 0.043
10,CAAGACTC,0.012 ± 0.018
11,AGCTCAAA,-0.0986 ± 0.042
12,CGGTCAAA,-0.18 ± 0.0046
13,GGAGGAAC,-0.022 ± 0.035
14,ATAAGGCG,0.186 ± 0.023
15,ATCTCAAG,-0.208 ± 0.0073
16,AGGCTTGA,-0.0666 ± 0.068
17,CGACGTGA,0.229 ± 0.014
18,ATAGTTGC,0.0442 ± 0.026
19,CAGGTGGC,0.364 ± 0.018
20,CGTAGTCA,0.0468 ± 0.00047
21,TACAGAAA,-0.131 ± 0.037
22,CGACCTCC,-0.154 ± 0.0068
23,ACTTGAAT,-0.1055 ± 0.00061
24,ACCAGCCG,0.149 ± 0.013
25,GAGGATAC,0.0967 ± 0.07

row,Sequence,PBM E-score of 8-mer
1,CCAGTTCA,-0.052 ± 0.044
2,AATCATTA,-0.104 ± 0.081
3,CCTCAGTA,-0.04691 ± 0.00039
4,AGCATGGG,-0.218 ± 0.072
5,GAATGAGA,-0.119 ± 0.047
6,AATGTGCA,0.0806 ± 0.0083
7,AAGCAAGC,-0.157 ± 0.037
8,GTAAATAC,-0.29 ± 0.0076
9,AGTGAGCG,0.0789 ± 0.034
10,GGAGTGCA,-0.0921 ± 0.012
11,TTGCGAAA,0.349 ± 0.034
12,AAGTTTCC,-0.0893 ± 0.047
13,GAAAAGTA,-0.0794 ± 0.046
14,AGAGCTAG,-0.242 ± 0.036
15,CTAGAGGA,-0.214 ± 0.034
16,GTAGTCAC,0.137 ± 0.0086
17,AAGGGGTG,0.292 ± 0.038
18,ACTTCGAT,0.102 ± 0.024
19,CGCTACTC,0.1564 ± 0.0012
20,AGTGTAGC,0.137 ± 0.0081
21,GCCTGCAA,-0.102 ± 0.041
22,GATCTGCC,-0.041 ± 0.024
23,AAAGAATC,0.018 ± 0.044
24,ACAGCAAT,0.0583 ± 0.025
25,GAGCAGCA,-0.1863 ± 0.0012

row,Sequence,PBM E-score of 8-mer
1,CCGTTCCC,0.0661 ± 0.053
2,ATACGATC,-0.104 ± 0.058
3,ACAAGTGG,0.375 ± 0.017
4,CGATGAAC,-0.0227 ± 0.068
5,AGGCGGTC,0.0247 ± 0.058
6,CCTCGCGA,0.281 ± 0.00058
7,ATCCGTAC,-0.132 ± 0.052
8,ACATGCAA,0.00215 ± 0.018
9,CTTAAACC,-0.167 ± 0.019
10,GACAATCA,0.102 ± 0.02
11,CCTGTTTA,-0.126 ± 0.0022
12,CACGTGGC,0.244 ± 0.011
13,CGAGTAAG,-0.0352 ± 0.022
14,GGACCACC,-0.135 ± 0.064
15,GGCCCACA,-0.0771 ± 0.055
16,AGCTAGTA,-0.207 ± 0.037
17,CTTCAAAC,0.0284 ± 0.034
18,GCGATGAA,0.251 ± 0.023
19,AGCTAGCT,0.0796 ± 0.0065

# Reference: the supplement of paper PMC4166925
